B1: AACCGAA (DNA:RNA)
RNA: GGGAGACCGGAAUUCAGAUUGUCCAACCGAAUUAAAUCCCGUCGUAGCCACCA
DNA 1: CAATCTGAATTCCGGTCTCCC
DNA 2: TGGTGGCTACGACGGGATT
B2: AGUUAGU (DNA:RNA)
RNA: B1 RNA with A26G, C27U, C28U, G29A, A30G, A31U
DNA 1: CAATCTGAATTCCGGTCTCCC
DNA 2: TGGTGGCTACGACGGGATT
B3: UGAGGCG (DNA:RNA)
RNA: B1 RNA with A25U, A26G, C27A, C28G, A30C, A31G
DNA 1: CAATCTGAATTCCGGTCTCCC
DNA 2: TGGTGGCTACGACGGGATT
B4: UACGCUG (DNA:RNA)
RNA: B1 RNA with A25U, C28G, G29C, A30U, A31G
DNA 1: CAATCTGAATTCCGGTCTCCC
DNA 2: TGGTGGCTACGACGGGATT
B5: GCCGGAU (DNA:RNA)
RNA: B1 RNA with A25G, A26C, C28G, A31U
DNA 1: CAATCTGAATTCCGGTCTCCC
DNA 2: TGGTGGCTACGACGGGATT
B6: AAAGGCU (DNA:RNA)
RNA: B1 RNA with C27A, C28G, A30C, A31U
DNA 1: CAATCTGAATTCCGGTCTCCC
DNA 2: TGGTGGCTACGACGGGATT
B7: AUGAAGG (DNA:RNA)
RNA: B1 RNA with A26U, C27G, C28A, G29A, A30G, A31G
DNA 1: CAATCTGAATTCCGGTCTCCC
DNA 2: TGGTGGCTACGACGGGATT
B8: GUUAGCC (DNA:RNA)
RNA: B1 RNA with A25G, A26U, C27U, C28A, A30C, A31C
DNA 1: CAATCTGAATTCCGGTCTCCC
DNA 2: TGGTGGCTACGACGGGATT
B9: ACUGUUG (DNA:RNA)
RNA: B1 RNA with A26C, C27U, C28G, G29U, A30U, A31G
DNA 1: CAATCTGAATTCCGGTCTCCC
DNA 2: TGGTGGCTACGACGGGATT
B10: UACUUAA (DNA:RNA)
RNA: B1 RNA with A25U, C28U, G29U
DNA 1: CAATCTGAATTCCGGTCTCCC
DNA 2: TGGTGGCTACGACGGGATT
B11: CGAUAGC (DNA:RNA)
RNA: GGGAGACCGGAAUUCAGAUUGUCCCGAUAGCUUAAAUCCCGUCGUAGCCACCA
DNA 1: CAATCTGAATTCCGGTCTCCC
DNA 2: TGGTGGCTACGACGGGATT
B12: GGUACUC (DNA:RNA)
RNA: B11 RNA with C25G, A27U, U28A, A29C, G30U
DNA 1: CAATCTGAATTCCGGTCTCCC
DNA 2: TGGTGGCTACGACGGGATT
B13: CGUUCAA (DNA:RNA)
RNA: B11 RNA with A27U, A29C, G30A, C31A
DNA 1: CAATCTGAATTCCGGTCTCCC
DNA 2: TGGTGGCTACGACGGGATT
B14: UAGGGAA (DNA:RNA)
RNA: B1 RNA with A25U, C27G, C28G
DNA 1: CAATCTGAATTCCGGTCTCCC
DNA 2: TGGTGGCTACGACGGGATT
B15: CAUUUUU (DNA:RNA)
RNA: B11 RNA with G26A, A27U, A29U, G30U, C31U
DNA 1: CAATCTGAATTCCGGTCTCCC
DNA 2: TGGTGGCTACGACGGGATT
B16: GCUAAAG (DNA:RNA)
RNA: B1 RNA with A25G, A26C, C27U, C28A, G29A, A31G
DNA 1: CAATCTGAATTCCGGTCTCCC
DNA 2: TGGTGGCTACGACGGGATT
B17: UGCCGCU (DNA:RNA)
RNA: B1 RNA with A25U, A26G, A30C, A31U
DNA 1: CAATCTGAATTCCGGTCTCCC
DNA 2: TGGTGGCTACGACGGGATT
B18: UACCUAU (DNA:RNA)
RNA: B1 RNA with A25U, G29U, A31U
DNA 1: CAATCTGAATTCCGGTCTCCC
DNA 2: TGGTGGCTACGACGGGATT
B19: GGAUGAG (DNA:RNA)
RNA: B11 RNA with C25G, A29G, G30A, C31G
DNA 1: CAATCTGAATTCCGGTCTCCC
DNA 2: TGGTGGCTACGACGGGATT
B20: GAAAAGU (DNA:RNA)
RNA: B11 RNA with C25G, G26A, U28A, C31U
DNA 1: CAATCTGAATTCCGGTCTCCC
DNA 2: TGGTGGCTACGACGGGATT
B21: CUAGGCC (DNA:RNA)
RNA: B11 RNA with G26U, U28G, A29G, G30C
DNA 1: CAATCTGAATTCCGGTCTCCC
DNA 2: TGGTGGCTACGACGGGATT
B22: CUAAGCG (DNA:RNA)
RNA: B11 RNA with G26U, U28A, A29G, G30C, C31G
DNA 1: CAATCTGAATTCCGGTCTCCC
DNA 2: TGGTGGCTACGACGGGATT
B23: GCCUAUU (DNA:RNA)
RNA: B11 RNA with C25G, G26C, A27C, G30U, C31U
DNA 1: CAATCTGAATTCCGGTCTCCC
DNA 2: TGGTGGCTACGACGGGATT
B24: ACGGCAU (DNA:RNA)
RNA: B1 RNA with A26C, C27G, C28G, G29C, A31U
DNA 1: CAATCTGAATTCCGGTCTCCC
DNA 2: TGGTGGCTACGACGGGATT
B25: CUAGCAU (DNA:RNA)
RNA: B11 RNA with G26U, U28G, A29C, G30A, C31U
DNA 1: CAATCTGAATTCCGGTCTCCC
DNA 2: TGGTGGCTACGACGGGATT
B26: UAUCUGC (DNA:RNA)
RNA: B1 RNA with A25U, C27U, G29U, A30G, A31C
DNA 1: CAATCTGAATTCCGGTCTCCC
DNA 2: TGGTGGCTACGACGGGATT
B27: GUUCUAA (DNA:RNA)
RNA: B1 RNA with A25G, A26U, C27U, G29U
DNA 1: CAATCTGAATTCCGGTCTCCC
DNA 2: TGGTGGCTACGACGGGATT
B28: CUUCCGA (DNA:RNA)
RNA: B1 RNA with A25C, A26U, C27U, G29C, A30G
DNA 1: CAATCTGAATTCCGGTCTCCC
DNA 2: TGGTGGCTACGACGGGATT
B29: UCGCGCA (DNA:RNA)
RNA: B1 RNA with A25U, A26C, C27G, A30C
DNA 1: CAATCTGAATTCCGGTCTCCC
DNA 2: TGGTGGCTACGACGGGATT
B30: AUUCUGC (DNA:RNA)
RNA: B1 RNA with A26U, C27U, G29U, A30G, A31C
DNA 1: CAATCTGAATTCCGGTCTCCC
DNA 2: TGGTGGCTACGACGGGATT
B31: GACCUCA (DNA:RNA)
RNA: B1 RNA with A25G, G29U, A30C
DNA 1: CAATCTGAATTCCGGTCTCCC
DNA 2: TGGTGGCTACGACGGGATT

Residue numbers refer to the chain shown, from its start. This is one part of the list.

For the experiment, the target named is T1, RBFOX1 RRM RbFoxmut (Fox-RRM*) (Homo sapiens, UniProt Q9NWB1 109-208, R118D;E147R;N151S;E152T).
T1 sequence: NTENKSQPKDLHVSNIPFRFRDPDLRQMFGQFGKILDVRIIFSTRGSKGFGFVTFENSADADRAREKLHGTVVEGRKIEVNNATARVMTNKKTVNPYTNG
Description: EMSA; HiTS-Eq, 1 nM pool, 10 min; buffer printed only for the single-RNA assays: 10 mM Tris pH 7.5, 150 mM NaCl, 3.4 mM EDTA, 0.001% NP-40, 30 C. The conditions noted are these: tags: His6 N-terminal (pET28a); label: 5' 32P. In short, it runs like this:
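Relative association constants, normalised to the cognate motif, were derived by comparing read counts of each RNA species with those of the control reaction. The RNA sequenced was the free fraction, separated by 8% native PAGE after a 10 min equilibration in 50 µL of 1 nM 5′-radiolabelled RNA (7 randomized nucleotides) with increasing concentrations of purified wild-type or mutant RbFox RRM.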
B1: the binding signal was 0.109 KA relative to UGCAUGU.
For the molecule B2, the binding signal is 0.126 KA relative to UGCAUGU.
As for B3, the binding signal is 0.143 KA relative to UGCAUGU.
The same measure for B4: 0.0628 KA relative to UGCAUGU; for B5: 0.0694 KA relative to UGCAUGU.
In the case of B6, the binding signal is 0.0786 KA relative to UGCAUGU.
For B7, the binding signal was 0.0739 KA relative to UGCAUGU.
Regarding B8, the binding signal is 0.124 KA relative to UGCAUGU.
Turning to B9, the binding signal is 0.149 KA relative to UGCAUGU.
Turning to B10, the binding signal was 0.117 KA relative to UGCAUGU.
In the case of B11, the binding signal is 0.0905 KA relative to UGCAUGU.
In the case of B12, the binding signal was 0.0687 KA relative to UGCAUGU.
B13: the binding signal is 0.0571 KA relative to UGCAUGU.
On to B14, for which the binding signal is 0.103 KA relative to UGCAUGU.
On to B15, for which the binding signal is 0.1 KA relative to UGCAUGU.
Consider B16, for which the binding signal is 0.0953 KA relative to UGCAUGU.
Next, B17: 0.0839 KA relative to UGCAUGU; B18: 0.0744 KA relative to UGCAUGU.
The same measure for B19: 0.225 KA relative to UGCAUGU; for B20: 0.0892 KA relative to UGCAUGU; for B21: 0.158 KA relative to UGCAUGU.
Regarding B22, the binding signal was 0.111 KA relative to UGCAUGU.
For B23, the binding signal is 0.0856 KA relative to UGCAUGU.
Regarding B24, the binding signal is 0.0989 KA relative to UGCAUGU.
On to B25, for which the binding signal was 0.0964 KA relative to UGCAUGU.
For the molecule B26, the binding signal was 0.0778 KA relative to UGCAUGU.
For B27, the binding signal is 0.0898 KA relative to UGCAUGU.
For the molecule B28, the binding signal was 0.0603 KA relative to UGCAUGU.
For B29, the binding signal is 0.104 KA relative to UGCAUGU.
For B30, the binding signal is 0.107 KA relative to UGCAUGU.
The same measure for B31: 0.112 KA relative to UGCAUGU.
